Measurements: paper PMC6664820, “Novel natural and synthetic inhibitors of solute carriers SGLT1 and SGLT2” (Pharmacology Research & Perspectives, 2019)
Hit rate of the full screen: of about 1,900 compounds, about 40 (2%) showed an effect of 50% or more. Some of the results follow. Residues, ends and D or L forms follow the SMILES beside them.

Biological target: human SGLT1 (hSGLT1) (human, UniProt P13866)
Assay: primary screen, percent of control activity; higher = less effect of the substance
Parameters: single well
Settings: 50 µM
In short: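 Single-point screen at 50 µmol/L in CHO-hSGLT1 cells, with 160 µmol/L 1-NBD-glucose in glucose-free DMEM for 90 min at 37°C. Fluorescence from isopropanol extracts was calibrated, and CHO wild-type uptake was subtracted. Data are percent of uptake without compound.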

human SGLT1 (hSGLT1), sequence (P13866 whole entry, looked up): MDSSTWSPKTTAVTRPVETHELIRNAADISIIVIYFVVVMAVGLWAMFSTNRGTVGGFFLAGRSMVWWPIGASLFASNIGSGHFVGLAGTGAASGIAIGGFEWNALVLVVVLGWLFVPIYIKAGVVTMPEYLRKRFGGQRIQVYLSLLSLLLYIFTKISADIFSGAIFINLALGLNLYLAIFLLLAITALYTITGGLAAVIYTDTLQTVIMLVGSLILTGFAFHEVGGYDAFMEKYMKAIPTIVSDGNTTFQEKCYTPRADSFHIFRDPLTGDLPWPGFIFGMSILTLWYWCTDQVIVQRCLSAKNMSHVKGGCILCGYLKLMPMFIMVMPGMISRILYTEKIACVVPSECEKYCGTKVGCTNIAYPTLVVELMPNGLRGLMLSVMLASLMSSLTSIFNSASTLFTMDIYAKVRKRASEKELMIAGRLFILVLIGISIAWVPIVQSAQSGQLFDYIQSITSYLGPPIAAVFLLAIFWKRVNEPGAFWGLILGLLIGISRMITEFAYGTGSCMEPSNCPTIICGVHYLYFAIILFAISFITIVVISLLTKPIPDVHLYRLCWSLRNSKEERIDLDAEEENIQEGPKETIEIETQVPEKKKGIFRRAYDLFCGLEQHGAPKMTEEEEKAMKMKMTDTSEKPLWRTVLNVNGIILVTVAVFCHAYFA

Structure (SMILES)	NORMALIZED SGLT1 ACTIVITY (%)
CCCCOc1ccc(C(=O)CCN2CCCCC2)cc1.Cl	206
CC1(C)C(=O)C=C[C@@]2(C)C1CC(=O)[C@]1(C)C2CC[C@@]2(C)[C@H](c3ccoc3)OC(=O)[C@H]3O[C@]321 (stereo partly drawn)	80
CC(C1OC(C)(C)C(O)C1O)[C@@H]1CC[C@]2(C)C3=CCC4C(C)(C)C(=O)CC[C@]4(C)C3CC[C@@]12C (stereo partly drawn)	122
COC(=O)c1cc(O)c(=O)c2c(O)c(O)ccc2c1	121
CC(N)CCCC(C)(C)O.Cl (stereo not drawn)	88
CC(C)C(=O)Nc1ccc([N+](=O)[O-])c(C(F)(F)F)c1	285
CCOP(=S)(OCC)Oc1cc(C)nc(C(C)C)n1	107
C=CC(C1=CC(=O)C=CC1=O)c1ccccc1 (stereo not drawn)	404
CCOC(N)=O	85
Cl.N=C(N)NC(=O)c1nc(Cl)c(N)nc1N	106
NNCCc1ccccc1.O=S(=O)(O)O	177
CN1CCN(CC/C=C2/c3ccccc3Sc3ccc(S(=O)(=O)N(C)C)cc32)CC1	116
CC(=O)Oc1ccc(Cl)c2cccnc12	202
OC(Cn1cncn1)(Cn1cncn1)c1ccc(F)cc1F	113
CC(=O)Oc1ccc(-c2cc(=O)c3c(OC(C)=O)cc(OC(C)=O)cc3o2)cc1	128
C#CCOS(=O)OC1CCCCC1Oc1ccc(C(C)(C)C)cc1 (stereo not drawn)	108
COC(=O)CC1C(C)(C)C(OC(C)=O)[C@@H]2[C@@H](OC(C)=O)[C@]34O[C@@]2(O)[C@]1(C)C3CC[C@]1(C)C4=CC(=O)O[C@H]1c1ccoc1 (stereo partly drawn)	94
O=C(OCC(O)CO)c1ccccc1Nc1ccnc2cc(Cl)ccc12 (stereo not drawn)	248
CC(=O)S[C@@H]1CC2=CC(=O)CC[C@]2(C)[C@H]2CC[C@@]3(C)[C@@H](CC[C@@]34CCC(=O)O4)[C@H]12	107
CCOC(=O)CCCCCCCCCCCCC1C=CCC1 (stereo not drawn)	127
CC(C)CCCC1(C)C=Cc2c(O)c3c(c(CCC(C)C)c2O1)OC12C(CC4CC1C(C)(C)OC2(CCC(C)C(=O)O)C4O)C3=O (stereo not drawn)	111
C/C=C1\[C@H]2C=C(C)C[C@]1(N)c1ccc(=O)[nH]c1C2	109
COc1cc2c(cc1OC)[C@@H]1C(=O)c3ccc4c(c3O[C@@H]1CO2)CC(C(C)C)O4 (stereo partly drawn)	81

Structure (SMILES)	NORMALIZED SGLT1 ACTIVITY (%)
Oc1ccc(Cl)cc1	111
Br.CC(N)Cc1ccc(O)cc1 (stereo not drawn)	117
CC(=O)O.NCCCCC(N)C(=O)NC(Cc1ccc(O)cc1)C(=O)NC(CCCCN)C(=O)O (stereo not drawn) (H-Lys-Tyr-Lys-OH; configuration not given here)	179
CCC(C(N)=O)c1ccccc1 (stereo not drawn)	79
CCCCN(CCCC)CCCOC(=O)c1ccc(N)cc1	52
CNC[C@@H](O)c1ccc(O)c(O)c1.O=C(O)C(O)C(O)C(=O)O	105
Cc1ccc(N(CC2=NCCN2)c2cccc(O)c2)cc1.Cl	62
CC(=O)OCC(=O)[C@@]1(O)CC[C@H]2[C@@H]3CCC4=CC(=O)CC[C@]4(C)[C@@]3(F)[C@@H](O)C[C@@]21C	124
CN1CCN(C(c2ccccc2)c2ccccc2)CC1	87
Cc1cc(C(C)(C)C)c(O)c(C)c1CC1=NCCN1.Cl	81
CC(=O)[C@@]1(O)CC[C@H]2[C@@H]3C=C(Cl)C4=CC(=O)[C@@H]5C[C@@H]5[C@]4(C)[C@H]3CC[C@@]21C	183
CC[C@@H](C(=O)C(C)[C@@H](O)[C@H](C)CCc1ccc(C)c(O)c1C(=O)[O-])C1OC(CC)(C2CC[C@](O)(CC)[C@H](C)O2)C[C@@H]1C.[Na+] (stereo partly drawn)	125
Oc1ccc(Cl)cc1Cc1cc(Cl)ccc1O	590
CC(=O)O[C@@H]1CC2C(C)(C)C(=O)C=C[C@]2(C)C2CC[C@]3(C)C(=CC(=O)O[C@H]3c3ccoc3)[C@@]21C (stereo partly drawn)	215
NC(=O)CN1CCCC1=O	141
COc1ccc2c(c1)CCC1C2CCC2(C)C1C[C@@H](O)C2O (stereo partly drawn)	100
C#CCCCCCCCCCCCC(O)CC(O)CO (stereo not drawn)	152
CCOC(=O)CCC(=O)O[C@H]1[C@H](O[C@@H]2[C@@H](C)[C@H](O[C@H]3C[C@@](C)(OC)[C@@H](O)[C@H](C)O3)[C@@H](C)C(=O)O[C@H](CC)[C@@](C)(O)[C@H](O)[C@@H](C)C(=O)[C@H](C)C[C@@]2(C)O)O[C@H](C)C[C@@H]1N(C)C	115
CC(C)(C)NC[C@H](O)c1ccc(O)c(CO)c1.Cl	155
COc1ccc(-c2coc3cc(OC)cc(OC)c3c2=O)cc1	150
Cc1cc(C(C)(C)C)cc(C)c1CC1=NCCN1.Cl	79
COc1cc2occc2c2oc(=O)ccc12	146
